Source: PubChem BioAssay AID1347073 (National Center for Advancing Translational Sciences (NCATS), 2019)
The whole screen tested about 45,000 compounds, of which about 200 (0.44%) were called active. Inconclusive results (about 7%) are left out. Calls follow the shape of the dose curve; as a rule, active = well fitted activation curve with a large enough effect; inconclusive = small, poorly fitted or top-dose-only effect; inactive = no such curve, though single readings can be large or run the other way. This is one part of the list.

Assay: qHTS of TDP-43 Inhibitors: NCGC Sytravon Library Screen; also: 0% is about no effect; nearly all actives have a fitted effect of over 55% in size
Details: yeast TDP-43 toxicity rescue, BacTiter-Glo growth, 24 h; series mostly up to 46.1 µM; growth rescue (activation): at the top concentration
Procedure, shortened: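 TDP-43-expressing yeast, pregrown in raffinose, seeded at OD600 0.02 in galactose medium with compound for 24 hr at 30 deg C. Growth read by BacTiter-Glo luminescence, so rescue of toxicity appears as activation.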

Structure (SMILES)	growth rescue (activation)
O=C(c1ccccc1F)N(Cc1cccnc1)Cc1cc2cc3c(cc2[nH]c1=O)OCCO3	inactive: 0.469%
COc1ccc(CCNC(=O)c2c(C)nn(-c3ccccc3)c2Cl)cc1OC	inactive: 18.8%
OCCC1CN(Cc2cnc(-c3ccccc3)s2)CCN1C1CCCCC1 (stereo not drawn)	inactive: -4.83%
Nc1nc(CN2CCN(c3ccccc3F)CC2)nc(N2CCCc3ccccc32)n1	inactive: 9.47%
CC(C(=O)N1CCCCC1)N(C)CC(=O)Nc1ccc(Cl)cc1 (stereo not drawn)	inactive: -4.04%
COc1ccc(S(=O)(=O)NCc2ccccn2)cc1NC(=O)c1ccccc1	inactive: 2.73%
C=Cc1ccc(Cn2c(C(=O)OC)cc3sc(C)cc32)cc1	inactive: 10.3%
Cc1c(C(=O)N2CCC2)oc2ccc(Cl)cc12	inactive: 13.2%
CCOc1ccccc1Nc1nnc(SCC(=O)NCC2CCCO2)s1 (stereo not drawn)	inactive: -3.22%
Cc1ccc(NC(=O)CSc2nncc3ccccc23)cc1	inactive: 12.8%
Cc1ccc(C)c(NC(=O)COC(=O)CC2CC3CCC2C3)c1 (stereo not drawn)	inactive: 3.14%
Cc1ccc(C(=O)OCC(=O)N2c3ccccc3NC(=O)C2(C)C)cc1S(=O)(=O)N1CCCCC1	inactive: 23.8%
Cc1cc(NC(=O)CCc2ccccc2)c([N+](=O)[O-])cc1C	inactive: 36.9%
Cc1cc(Br)ccc1OCCNCc1ccccc1	inactive: 3.95%
Cc1ccc(-c2cc(C(=O)O)c3sc(N4CCCCC4)nc3n2)cc1	inactive: -0.956%
O=[N+]([O-])c1ccc(NC(=S)NCCc2ccc(F)cc2)cc1	inactive: -90%
Cc1cc2cc(CCNS(=O)(=O)c3ccc(F)cc3)c(=O)[nH]c2cc1C	inactive: 8.3%
O=C1CN(C(=O)c2ccco2)C(c2ccccc2)c2cc(Cl)ccc2N1 (stereo not drawn)	inactive: 26.3%
O=C(O)CCCN1C(=O)C2C3c4ccccc4C(c4ccccc43)[C@@H]2C1=O (stereo partly drawn)	inactive: 16.9%
Cc1nc(SCCOc2ccc(Cl)cc2)[nH]c(=O)c1Cc1ccccc1	inactive: 9.98%
Cc1cc(C)cc(C(=O)OCC(=O)N2CCCC2)c1	inactive: 16.2%
O=C(c1ccc(NS(=O)(=O)c2cccs2)cc1)N1CCOCC1	inactive: 6.21%
CN(C)c1nc(-c2ccccc2)cc(C(F)(F)F)c1C#N	inactive: 28.7%
CC(=O)c1cc(CC(=O)N2CCc3c([nH]c4ccccc34)C2c2ccccn2)cs1 (stereo not drawn)	inactive: -13.1%
O=C(C1CCN(C2CCN(Cc3ccc4c(c3)CCO4)CC2)CC1)N1CCCC1	inactive: -1.7%
C[C@H](NC(=O)c1ccco1)C(=O)Nc1ccc(C#N)cc1	inactive: 5.01%
CCCCOC(=O)Nc1nnc(-c2ccccc2OC)s1	inactive: 6.11%

Structure (SMILES)	growth rescue (activation)
CCCCN(CC)CCNC(=O)c1cc2c(=O)n(C)c3ccccc3c2s1	inactive: -5.02%
COc1ccc(NC(=O)CSc2nc3[nH]c(=O)[nH]c(=O)c3s2)cc1OC	inactive: -3.74%
CCOC(=O)c1c(C)[nH]c(C)c1C(=O)COC(=O)c1cccnc1Cl	inactive: 20.4%
Cc1ccc(CC(=S)N2CCOCC2)cc1	inactive: 4.88%
O=C(NC1CCCc2ccccc21)c1cc(F)cc(F)c1 (stereo not drawn)	inactive: 22.7%
Cc1nc(CC(=O)NNS(=O)(=O)c2ccc(F)c(Cl)c2)cs1	inactive: 14.2%
Cc1cc(Oc2cc(N)cc([N+](=O)[O-])c2)ccc1Cl	inactive: 13.4%
COc1ccc(-c2noc(CN(C)C(=O)c3ccoc3C)n2)cc1OC	inactive: -1.95%
CCOC(=O)N(C)c1c(CC)nc2c(OCc3ccccc3)cccn12	inactive: 0.505%
COc1ccc(C(CNS(=O)(=O)c2ccc(NC(C)=O)c(OC)c2)N2CCCCC2)cc1 (stereo not drawn)	inactive: 8.24%
CC(=O)c1ccc(N2CCN(C(=O)CCC(=O)c3cccs3)CC2)cc1	inactive: 2.81%
NS(=O)(=O)c1ccc(NC(=O)CN2CCN(S(=O)(=O)/C=C/c3ccccc3)CC2)cc1	inactive: -15.3%
Cc1noc(C)c1C(=O)OCC(=O)Nc1ncc(Cl)c(C)c1Cl	inactive: 32.2%
O=C(Nc1ccccc1Cl)C1C2CCCCC21 (stereo not drawn)	inactive: 12%
CC1(C)CC(=O)C2=C(C1)N(c1ccccc1)C(N)=C(C#N)C2c1ccsc1 (stereo not drawn)	inactive: -9.47%
CCC(C(=O)NC1CCCC1)N(C(=O)Cn1nnc(-c2ccc(C)o2)n1)c1ccc(OC)cc1 (stereo not drawn)	inactive: 6.94%
COc1cc(NC(=O)c2ccccc2)c(OC)cc1NC(=O)CN1CCOCC1	inactive: -3.69%
COc1ccc(CNC(=O)CNC(c2ccccc2)c2ccccc2)cc1OC	inactive: -24.1%
CC(SCc1ccccc1)C(=O)Nc1ccccc1-c1ccccc1 (stereo not drawn)	inactive: 0.992%
Cc1ccnc(NS(=O)(=O)c2ccc(NC(=O)/C=C/c3ccccc3)cc2)n1	inactive: 3.98%
COC(=O)C1CCN(C(=O)/C=C/c2ccccc2)CC1	inactive: -12.3%
CCOC(=O)Cc1csc(SCC(=O)N2CCN(c3ccccc3)CC2)n1	inactive: 37.9%
Cn1nc(-c2ccc(N3CCN(CCO)CC3)c([N+](=O)[O-])c2)c2ccccc2c1=O	inactive: -0.771%
CSc1nc2ccccc2n1CC(=O)N1CCCCC1	inactive: -17.3%
O=C(O)C1Cc2ccccc2CN1C(=O)COc1ccc(Cl)cc1 (stereo not drawn)	inactive: -4.19%
CCOc1ccccc1OCCn1nc2ccccc2n1	inactive: 21.2%
